Like-named read-outs stand apart in the source and are kept apart here.
Key:
[1] = system: patients with higher risk MDS; test: AZA-001 analysis: IRC-determined IWG 2006 responses
[2] = system: patients with higher risk MDS
[3] = system: patients with higher risk MDS; remark: listed apart in the source

## Nc1ncn([C@@H]2O[C@H](CO)[C@@H](O)[C@H]2O)c(=O)n1 [azacitidine, 4-amino-1-β-D-ribofuranosyl-1,3,5-triazin-2(1H)-one]
[1]; AZA n=179
  IRC-determined IWG response rate, CR: 16%
  IRC-determined IWG response rate, HI: 36%
  IRC-determined IWG response rate, PR: 1%
[1]; in vivo
  median duration of response, CR: 156 days
  median duration of response, HI: 241 days
  median duration of response, PR: 217 days
  median duration of response, SD: 257 days
[2]; human, in vivo
  rate of early discontinuation: 39%
[2]; patients pre-selected for LDAC
  CR+PR rate: 31.1%
  HI (major + minor): 53.3%
  deaths during study: 45%
  difference in median OS, AZA vs LDAC: 9.2 months
  hazard ratio OS, AZA vs LDAC: 0.38
  transfusion independence in baseline-dependent patients: 45%
[2]; patients pre-selected for LDAC: AZA n=45, LDAC n=49
  median OS: 24.4 months
[3]; AZA 75 mg/m2/d SC x7d q28d, N=175
  median duration of the most common AEs (≥20%): 13 days
[3]; Cycles 1-2, N=175
  Patients with at least 1 individual AE occurring in ≥20% of patients, percent of patients per cycle: 94%
  TEAE Anemia, percent of patients per cycle: 33%
  TEAE Blood and lymphatic system disorders, percent of patients per cycle: 75%
  TEAE Constipation, percent of patients per cycle: 35%
  TEAE Diarrhea, percent of patients per cycle: 12%
  TEAE Fatigue, percent of patients per cycle: 13%
  TEAE Gastrointestinal disorders, percent of patients per cycle: 62%
  TEAE General disorders and administration site conditions, percent of patients per cycle: 62%
  TEAE Injection site erythema, percent of patients per cycle: 35%
  TEAE Injection site reaction, percent of patients per cycle: 21%
  TEAE Nausea, percent of patients per cycle: 36%
  TEAE Neutropenia, percent of patients per cycle: 50%
  TEAE Pyrexia, percent of patients per cycle: 16%
  TEAE Thrombocytopenia, percent of patients per cycle: 54%
  TEAE Vomiting, percent of patients per cycle: 18%
[3]; Cycles 3-4, N=147
  Patients with at least 1 individual AE occurring in ≥20% of patients, percent of patients per cycle: 79%
  TEAE Anemia, percent of patients per cycle: 18%
  TEAE Blood and lymphatic system disorders, percent of patients per cycle: 54%
  TEAE Constipation, percent of patients per cycle: 20%
  TEAE Diarrhea, percent of patients per cycle: 8%
  TEAE Fatigue, percent of patients per cycle: 10%
  TEAE Gastrointestinal disorders, percent of patients per cycle: 42%
  TEAE General disorders and administration site conditions, percent of patients per cycle: 44%
  TEAE Injection site erythema, percent of patients per cycle: 21%
  TEAE Injection site reaction, percent of patients per cycle: 13%
  TEAE Nausea, percent of patients per cycle: 19%
  TEAE Neutropenia, percent of patients per cycle: 31%
  TEAE Pyrexia, percent of patients per cycle: 6%
  TEAE Thrombocytopenia, percent of patients per cycle: 30%
  TEAE Vomiting, percent of patients per cycle: 11%
[3]; Cycles 5-6, N=130
  Patients with at least 1 individual AE occurring in ≥20% of patients, percent of patients per cycle: 65%
  TEAE Anemia, percent of patients per cycle: 14%
  TEAE Blood and lymphatic system disorders, percent of patients per cycle: 42%
  TEAE Constipation, percent of patients per cycle: 13%
  TEAE Diarrhea, percent of patients per cycle: 4%
  TEAE Fatigue, percent of patients per cycle: 3%
  TEAE Gastrointestinal disorders, percent of patients per cycle: 25%
  TEAE General disorders and administration site conditions, percent of patients per cycle: 32%
  TEAE Injection site erythema, percent of patients per cycle: 18%
  TEAE Injection site reaction, percent of patients per cycle: 9%
  TEAE Nausea, percent of patients per cycle: 12%
  TEAE Neutropenia, percent of patients per cycle: 28%
  TEAE Pyrexia, percent of patients per cycle: 4%
  TEAE Thrombocytopenia, percent of patients per cycle: 25%
  TEAE Vomiting, percent of patients per cycle: 5%
[3]; Cycles 7-8, N=107
  Patients with at least 1 individual AE occurring in ≥20% of patients, percent of patients per cycle: 65%
  TEAE Anemia, percent of patients per cycle: 11%
